In publication PMC5579064, “1α,20S-Dihydroxyvitamin D3 Interacts with Vitamin D Receptor: Crystal Structure and Route of Chemical Synthesis” (Scientific Reports, 2017):

Tests used:
TRPV6 gene (mRNA) = assay: Real-time PCR, TRPV6 mRNA expression in HaCaT cells; details: 100 nM, 24 h
IL1β = IL1β production assay in splenocyte cultures (ELISA); format: cell-based; details: mouse splenocyte culture supernatant, LPS 100 ng/mL, secosteroid 100 nM, 24 h; control 123 ± 2
Description: Splenocytes were isolated from 7-week old C57BL/6 female mice and cultured at 2 × 10^6/mL, 500 μL/well, for 24 h at 37 °C in a humidified atmosphere. The vitamin D analogs or EtOH vehicle were added to the splenocyte cultures 2 h prior to addition of Lipopolysaccharide W E. coli 055:B5 (LPS) (Difco Lab. Defrost MI) 100 ng/mL or PBS vehicle. Harvested supernatants were analyzed for levels of murine IL1β by ELISA (R & D Systems Minneapolis, MN) according to the manufacturer’s instructions. Results are expressed as mean IL1β concentration ± SEM of triplicate determinations (pg/mL) of culture supernatant. The amount of EtOH in the EtOH + PBS and EtOH + LPS culture was equal to that in the cultures of the vitamin D analogs at a level of 10^-7 M. Culture medium was RPMI 1640 supplemented with 9% charcoal stripped fetal bovine serum, non-essential amino acids, HEPES buffer Glutamax, penicillin 100 μg/mL, streptomycin 100 μg/mL, fungizone 1 μg/mL (GIBCO, Grand Island, NY) and 50 μM β-mercaptoethanol (Sigma, St. Louis, MO). The difference in [IL1β] between control and D3 analog treatment was analyzed by one way ANOVA (Sigma Plot 13.0).

CYP24A1 gene (mRNA) = assay: Real-time PCR, CYP24A1 mRNA expression in HaCaT cells; details: 100 nM, 24 h
IFNγ = IFNγ production assay in splenocyte cultures (ELISA); format: cell-based; details: mouse splenocyte culture supernatant, secosteroid 1.0 nM, 72 h; control 710 ± 9
Description: All animal experiments in this study were performed in accordance with the NIH animal use guidelines and protocol (protocol No.: 15–043.0) approved by the Institutional Animal Care and Use Committee (IACUC) at the University of Tennessee Health Science Center (UTHSC, Memphis, TN). Splenocytes were isolated from 7-week old C57BL/6 female mice and cultured at 2 × 10^6/mL 500 μL/well for 72 h at 37 °C in a humidified atmosphere. Harvested supernatants were analyze for levels of murine IFNγ by ELISA (R & D Systems Minneapolis, MN) according to the manufacturer’s instructions. Results are expressed as mean [IFNγ] ± SEM of triplicate determinations (pg/mL) of culture supernatant. The difference in [IFNγ] between EtOH vehicle + anti-CD3e MOAB (0.08 μg/mL) and [IFNγ] in each of the cultures containing D3 analog was analyzed by one way ANOVA Sigma. The amount of EtOH in the EtOH + PBS and EtOH + anti-CD3e MOAB culture was equal to that in the cultures of the D3 analogs at a level of 10^−9 M. Culture medium was RPMI 1640 supplemented with 9% charcoal stripped fetal bovine serum, non-essential amino acids, HEPES buffer Glutamax, penicillin 100 μg/mL, streptomycin 100 μg/mL, fungizone 1 μg/mL (GIBCO, Grand Island, NY) and 50 μM β-mercaptoethanol (Sigma, St. Louis, MO)[35].

VDR [1] = biological target: T1, VDR (Homo sapiens, UniProt P11473); assay: VDRE-reporter (luciferase) assay in Jurkat cells; details: read-out: VDRE stimulation, EC50 ± standard deviation, 24 h incubation
T1 sequence (P11473 1-427): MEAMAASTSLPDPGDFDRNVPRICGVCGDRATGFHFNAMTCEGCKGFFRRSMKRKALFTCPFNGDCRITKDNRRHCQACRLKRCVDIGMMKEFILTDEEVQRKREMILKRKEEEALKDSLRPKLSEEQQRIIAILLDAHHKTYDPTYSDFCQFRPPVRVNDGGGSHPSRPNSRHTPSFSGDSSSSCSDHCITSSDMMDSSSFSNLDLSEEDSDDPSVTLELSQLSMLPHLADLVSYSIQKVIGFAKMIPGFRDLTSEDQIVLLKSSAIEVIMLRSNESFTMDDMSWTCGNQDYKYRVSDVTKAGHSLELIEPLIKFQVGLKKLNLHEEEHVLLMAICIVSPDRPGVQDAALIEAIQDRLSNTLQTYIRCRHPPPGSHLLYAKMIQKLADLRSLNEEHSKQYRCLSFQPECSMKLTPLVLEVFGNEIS

VDR [2] = biological target: T1, VDR; assay: VDRE-reporter (luciferase) assay in Caco-2 cells; details: read-out: VDRE stimulation, EC50 ± standard deviation, 24 h incubation
VDR gene (mRNA) = assay: Real-time PCR, VDR mRNA expression in HaCaT cells; details: 100 nM, 24 h

EC50 (VDR [1]) [nM]	EC50 (VDR [2]) [nM]	SMILES	TRPV6 mRNA levels, increase (TRPV6 gene (mRNA)) [fold]	Cytokine level IL1β (value ± SEM) (IL1β) [pg/mL]	CYP24A1 mRNA levels, stimulation (CYP24A1 gene (mRNA)) [fold]	Cytokine level IFNγ (value ± SEM) (IFNγ) [pg/mL]	VDR mRNA expression, upregulation (VDR gene (mRNA)) [fold]
		C=C1/C(=C\C=C2/CCC[C@]3(C)[C@@H]([C@H](C)CCCC(C)(C)O)CC[C@@H]23)C[C@@H](O)C[C@@H]1O [1,25(OH)2D3, 1α,25-dihydroxyvitamin D3]	1.4	121 ± 3	10	353 ± 11	
1.2 ± 0.1	154.5 ± 0.8	C=C1/C(=C\C=C2/CCC[C@]3(C)[C@@H]([C@H](C)OCCC(C)(C)O)CC[C@@H]23)C[C@@H](O)C[C@@H]1O [Compound 22-Oxa, 22-oxa-1,25(OH)2D3]	2.6	91 ± 2	78	258 ± 2	1.7
